Marks after values point to notes of the source that are not given here.
Tests used:
[1] = system: IL-1β production by mouse peritoneal macrophages; test: IL-1β production by mouse peritoneal macrophages (ELISA); format: cell-based; conditions: for inhibition of IL-1β production: in words
Procedure: (1) IL-1β production: mice were intraperitoneally injected with 1 mL of broth medium containing 6% starch, and three days later, the mouse peritoneal macrophages were aseptically taken, washed twice with a 1640 medium, and the cell concentration was adjusted to 2×10^6 cells/mL, inoculated into a 24-well culture plate at 1 mL/well, incubated for 3 h in a cell incubator, and shaken once every 30 min, so that the cells were allowed to adhere sufficiently. Then, the cells were washed twice with a culture liquid to remove un-adhered cells. […] The supernatant was taken as a sample for testing activity of IL-1β.
(2) Determination of IL-1β content: the detection was performed by using mouse IL-1β enzyme-linked immunosorbent assay kit from R&D company. According to the instructions of the kit, the procedures were as follows: the reaction well for the test samples and different concentrations of standards were sealed with sealing tapes, respectively, incubation was performed at 37° C. for 90 min; the plate was washed four times; a biotinylated antibody working solution (100 μL/well) was added, the reaction well was sealed with sealing tapes, and incubation was performed at 37° C. for 60 min; the plate was washed four times; an enzyme conjugate working solution (100 μL/well) was added, the reaction well was sealed with sealing tapes, incubation was performed at 37° C. for 30 min; the plate was washed four times; a developer (100 μL/well) was added, incubation was performed at 37° C. for 10 to 20 min, a stop solution (100 μL/well) was added and mixed and the OD450 value was measured.

[2] = system: choroidal blood flow in rabbit eyes; test: Choroidal blood flow in rabbit eyes (color microsphere technique); format: in vivo; conditions: 128 μg intravitreal injection; for Blood flow: rabbit eyes with high intraocular pressure; for choroidal blood flow: all observation time points
Procedure: New Zealand white rabbits with weight of 2.5-3.0 kg were randomly divided into […], which were labeled as a control group, and fusion protein I, protein II, protein III, protein IV, and protein V groups. White rabbits in each group were anesthetized with 35 mg/kg xylazine via intramuscular injection, and then anesthesia was maintained with half of the initial amount via intramuscular injection per hour. The intraocular pressure of the left eye was increased to 40 mmHg, under which the blood flow can be reduced to ⅓ of the normal value. The left ventricle was cannulated through right carotid artery for injection of microspheres (for the calculation of ocular blood flow), and the femoral artery was cannulated for blood collection. Each group was given physiological saline, 128 μg of fusion protein I, 128 μg of protein II, 128 μg of protein III, 128 μg of protein IV, and 128 μg of protein V via intravitreal injection. The ocular blood flow of rabbit eyes with high intraocular pressure was measured by a color microsphere technique at 0, 30, and 60 minutes after administration. At each time point, 0.2 mL (about 2 million) of microspheres were injected. Immediately after the microspheres were injected, blood was collected through the femoral artery for 60 seconds, and placed in a heparinized anticoagulant tube, and the amount of blood collected was recorded. After the last blood collection, the animals were sacrificed with 100 mg/kg phenobarbital via intravenous infusion. The eyeballs were removed, and the retina, choroid, iris and ciliary body were separated, and the tissue weight was recorded. The tissue blood flow at each time point was calculated with the following formula: Qm=(Cm×Qr)/Cr, where Qm represented tissue blood flow in μL/min/mg; Cm was the number of microspheres per milligram of tissue; Qr was blood flow in μL/min; and Cr was the number of blood microspheres as a reference.

[3] = system: human umbilical vein endothelial cells (HUVEC); test: Three-dimensional transwell assay, migration of HUVEC; format: cell-based
Procedure: Human umbilical vein endothelial cells (HUVECs) were cultured with endothelial cell culture fluid containing 5% fetal bovine serum and 1×ECGS in a 5% CO2 incubator at 37° C., to a confluence of 90% or more, and then inhibitory effects of fusion protein I, protein II, protein III, protein IV, and protein V on migration of endothelial cells were detected by transwell assay, in which only endothelial cells HUVEC of passage 2 to 8 were used, and the specific operation was as follows.
(1) 10 mg/mL Matrigel was diluted with a DMEM medium at a ratio of 1:4, coated on a transwell chamber membrane, and air-dried at room temperature.
(2) HUVEC cells cultured to logarithmic phase were digested with 0.2% EDTA, collected, washed twice with PBS, followed by resuspended in an endothelial cell culture liquid containing 0.1% BSA, counted under a microscope, and the cell concentration was adjusted to 1×10^5 cells/mL;
(3) Test solutions for each group were formulated and diluted to 100 μL with a cell culture liquid containing 0.1% BSA;
Groups were divided as follows:
Blank control group: a cell culture liquid containing no drug;
Endostar group: 5 mg/mL Endostar solution diluted to a predetermined concentration with a cell culture liquid containing no drug; […]
(4) The cells were inoculated into a transwell chamber at 100 μL per well, and test solutions for each group were added to the chamber. To a 24-well plate, 0.6 mL of endothelial cell culture liquid containing 5% fetal bovine serum and 1×ECGS was added to stimulate cell migration, and incubated at 5% CO2 for 24 h at 37° C.
(5) The culture liquid in the well was discarded. The cells were fixed with 90% alcohol at room temperature for 30 min, stained with 0.1% crystal violet for 10 min at room temperature, and rinsed with water. Un-migrated cells in the upper layer were gently wiped off by a cotton swab. The observation was carried out under microscope and four fields of view were selected for taking photos and counting. The migration inhibition (MI) was calculated according to the formula: […]
where Ntest is the migration cell number in the test group, and Ncontrol is the migration cell number in the blank control group.
The test was repeated 3 times independently. The results obtained from the test were calculated as mean±SD, and statistical t-test was performed. P<0.05 was considered as a significant difference, and P<0.01 was considered as an extremely significant difference.

Molecule | IL-1β ([1]; dose 8 μg/mL) [pg/mL] | PI (%) ([1]; dose 8 μg/mL) | IL-1β ([1]; dose 32 μg/mL) [pg/mL] | PI (%) ([1]; dose 32 μg/mL) | IL-1β ([1]; dose 128 μg/mL) [pg/mL] | PI (%) ([1]; dose 128 μg/mL) | inhibition of IL-1β production [1] | Blood flow ([2]; 0 min after administration) [µL/min/mg] | Blood flow ([2]; 30 min after administration) [µL/min/mg] | Blood flow ([2]; 60 min after administration) [µL/min/mg] | choroidal blood flow [2] | MI (%) ([3]; dose 0.25 μg/mL) | Migration cell number ([3]; dose 0.25 μg/mL) | MI (%) ([3]; dose 0.5 μg/mL) | Migration cell number ([3]; dose 0.5 μg/mL) | MI (%) ([3]; dose 1 μg/mL) | Migration cell number ([3]; dose 1 μg/mL) | MI (%) ([3]; dose 2 μg/mL) | Migration cell number ([3]; dose 2 μg/mL) | MI (%) ([3]; dose 4 μg/mL) | also measured
Protein I: IgG1-Fc linked to antiangiogenesis polypeptide EDSM-Y via a flexible linker; SEQ ID NO: 15 (protein) [sequence of human IgG1 Fc not given]GGGGSGGGGSGGGGSFQPVLHLVALNSPLSGGMRGIRGADFQCFQQARAVGLAGTFRAGGGGRGD | 731.65 ± 9.76 | 13.59 | 470.01 ± 14.36 | 44.49 | 318.44 ± 11.33 | 62.39 | could significantly inhibit IL-1β production | 21.9 ± 2.3 | 16.9 ± 3.1 | 15.1 ± 1.6 | significantly increased | 19.18 | 2031.0 ± 184.39 | 30.42 | 1748.5 ± 361.22 | 63.27 | 923.0 ± 153.98 | 70.43 | 743.0 ± 233.57 | 68.36 | Migration cell number ([3]; dose 4 μg/mL): 795.0 ± 45.32**^; MI (%) ([3]; dose 8 μg/mL): 44.41%; Migration cell number ([3]; dose 8 μg/mL): 1397.0 ± 176.19
Protein III: mIgG4-Fc linked to antiangiogenesis polypeptide EDSM-Y via a flexible linker; SEQ ID NO: 19 (protein) [sequence of human IgG4 Fc with S228P F234A L235A (EU numbers) and a few adjoining residues not given]GGGGSGGGGSGGGGSFQPVLHLVALNSPLSGGMRGIRGADFQCFQQARAVGLAGTFRAGGGGRGD | 741.77 ± 8.11 | 12.40 | 496.11 ± 15.12 | 41.41 | 302.13 ± 10.12 | 64.32 | could significantly inhibit IL-1β production | 22.1 ± 2.2 | 17.1 ± 2.9 | 14.9 ± 1.5 | significantly increased | 14.88 | 2139 ± 184.39 | 51.89 | 1209 ± 307.58 | 65.26 | 873 ± 142.04 | 70.08 | 752 ± 192.37 | 78.59 | Migration cell number ([3]; dose 4 μg/mL): 538 ± 54.26; MI (%) ([3]; dose 8 μg/mL): 43.49%; Migration cell number ([3]; dose 8 μg/mL): 1420 ± 136.22

— patent US11407811B2, “Fusion protein, preparation method therefor and use thereof” (JIANGSU RONGTAI BIOTECH CO., LTD., priority 2017, dated 2022)
